Screen size: about 310,000 compounds; about 14,000 (4.5%) showed an effect of 50% or more. The effect is printed as a negative number. The list shows a part of the results.
Biological target: human ether-à-go-go-related gene (hERG) potassium channel (human, UniProt Q12809)
Test: primary screen, population patch clamp on CHO cells stably expressing hERG
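Note: peak tail current of the secondary pulse compared with the same well before compound.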

Chain of human ether-à-go-go-related gene (hERG) potassium channel (Q12809 whole entry, looked up): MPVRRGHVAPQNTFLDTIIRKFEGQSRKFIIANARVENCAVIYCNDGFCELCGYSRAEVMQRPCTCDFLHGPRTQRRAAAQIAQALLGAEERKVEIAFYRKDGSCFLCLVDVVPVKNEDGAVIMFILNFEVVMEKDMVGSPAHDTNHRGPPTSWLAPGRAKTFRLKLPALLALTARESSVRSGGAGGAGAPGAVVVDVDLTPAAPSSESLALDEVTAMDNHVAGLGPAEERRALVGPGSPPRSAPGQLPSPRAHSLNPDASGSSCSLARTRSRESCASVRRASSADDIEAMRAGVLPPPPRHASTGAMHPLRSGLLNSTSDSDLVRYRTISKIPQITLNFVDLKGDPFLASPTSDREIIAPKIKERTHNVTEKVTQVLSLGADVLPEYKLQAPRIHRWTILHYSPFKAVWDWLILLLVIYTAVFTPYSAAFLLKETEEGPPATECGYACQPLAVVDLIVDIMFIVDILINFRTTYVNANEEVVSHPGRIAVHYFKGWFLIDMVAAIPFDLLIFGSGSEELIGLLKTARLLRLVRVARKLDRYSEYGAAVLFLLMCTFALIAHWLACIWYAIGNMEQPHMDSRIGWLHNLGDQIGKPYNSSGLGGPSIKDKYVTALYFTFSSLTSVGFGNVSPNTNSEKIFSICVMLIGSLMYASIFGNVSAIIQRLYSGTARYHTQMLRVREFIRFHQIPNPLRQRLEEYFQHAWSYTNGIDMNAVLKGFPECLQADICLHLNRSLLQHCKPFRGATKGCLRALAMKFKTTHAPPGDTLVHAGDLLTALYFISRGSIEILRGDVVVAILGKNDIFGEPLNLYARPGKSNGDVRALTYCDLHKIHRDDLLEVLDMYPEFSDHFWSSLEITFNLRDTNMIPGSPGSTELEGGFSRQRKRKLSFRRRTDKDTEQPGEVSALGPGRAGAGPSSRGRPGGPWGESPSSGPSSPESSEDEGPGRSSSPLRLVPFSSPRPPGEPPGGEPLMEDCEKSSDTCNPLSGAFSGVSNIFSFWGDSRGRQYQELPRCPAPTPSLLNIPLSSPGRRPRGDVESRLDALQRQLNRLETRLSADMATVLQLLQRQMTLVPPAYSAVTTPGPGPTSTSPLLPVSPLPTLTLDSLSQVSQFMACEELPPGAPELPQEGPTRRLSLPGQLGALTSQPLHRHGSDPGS

SMILES | hERG current change (%, negative = inhibition) at 10uM
CNC(=O)CN1C(=O)C2C3C=CC(C3)C2C1=O (stereo not drawn) | -7.5%
COC(=O)C(O)(c1ccc(N(C)C)cc1)C(F)(F)F (stereo not drawn) | 15.5%
NNC(=S)Nc1ccc(OC(F)(F)F)cc1 | 14.8%
Cc1ccc2nc3c(cc(C(=O)NCCc4ccccc4)c(=N)n3CC3CCCO3)c(=O)n2c1 (stereo not drawn) | -76.9%
Cc1ccccc1C1CCCN(C(=O)c2cc(COc3c(F)cccc3F)on2)C1 (stereo not drawn) | 16.4%
C/C=C/C(=O)N1CC2(CC(c3cccc(NC(=O)CC(c4ccccc4)c4ccccc4)c3)=NO2)C[C@H]1C(N)=O (stereo partly drawn) | 11.3%
CC(C)CCNC(=O)CN(Cc1ccc2c(c1)OCO2)C(=O)Cn1nnc(-c2cccs2)n1 | -29.4%
O=C(Nc1ccc(F)c(Cl)c1)c1cccnc1 | -65.9%
Cn1c(=O)c2c(=O)cc(NNC(=O)C(C)(C)C)[nH]c2n(C)c1=O | 0.349%
Cc1ccc(S(=O)(=O)Nc2c(C)nn(C)c2C)cc1 | -4.07%
CCN1CCCC1CNS(=O)(=O)c1ccc(Br)cc1.Cl (stereo not drawn) | -36.3%
Cc1cc2nc(C3CCN(Cc4nnnn4Cc4ccccc4)CC3)[nH]c2cc1C | -52.3%
CCn1cc(C(=O)O)c(=O)c2cc(F)c(N3CCN(C(=S)NC(=O)c4ccc(OC)cc4)CC3)cc21 | 8.45%
CCCC(C)C(=O)OCC(=O)Nc1c(Br)cc(C)cc1Br (stereo not drawn) | 14.4%
CCN(CC)C(=O)c1[nH]cnc1C(=O)NCCCCCNC(=O)OC(C)(C)C | 13.6%
CCCNC(=O)COc1ncnc2sc(C)c(C)c12 | -4.5%
CCNC(=O)NC(=O)C(C)Oc1ccc(Br)cc1Br (stereo not drawn) | -3.59%
CCC(=O)N1CCc2cc(S(=O)(=O)NC(C(=O)N3CCN(c4ccc(F)cc4)CC3)C(C)C)ccc21 (stereo not drawn) | -10.6%
CN(c1cccc(NC(=O)c2ccccc2N(C)S(C)(=O)=O)c1)S(C)(=O)=O | 10.7%

SMILES | hERG current change (%, negative = inhibition) at 10uM
Cc1ccc2nc(SC(C)C(=O)N3CCOCC3)[nH]c2c1 (stereo not drawn) | 4.94%
CCN(C(=O)c1cc2c(=O)n3cccc(C)c3nc2s1)C1CCCCC1 | 11.8%
O=S(=O)(CC(O)CS(=O)(=O)c1ccc(Cl)cc1)c1ccccc1 (stereo not drawn) | 2.2%
CC(C)CNC(C(=O)Nc1ccc([N+](=O)[O-])cc1Br)c1ccccc1.O=C(O)C(=O)O (stereo not drawn) | -9.16%
Cc1noc(C)c1C(=O)N1CCC2(CC1)OCCO2 | 26.3%
COCCN1C(=O)c2ccccc2C(C(=O)NCC2CCCO2)C1c1c[nH]c2ccccc12 (stereo not drawn) | -1.45%
Cc1noc(C)c1C(=O)NC(C)c1ccc2c(c1)OCO2 (stereo not drawn) | -6.47%
CSC1=C(C#N)C(c2cccc(Br)c2)CC(=O)N1 (stereo not drawn) | -5.27%
CCc1ccc(S(=O)(=O)Nc2ccc(O)c3c(=O)cc(-c4ccccc4Cl)oc23)cc1 | 0.145%
O=C(COC(=O)/C=C/c1ccc(Cl)cc1Cl)NCc1ccco1 | 15.5%
c1ccc(CSc2nnc3ccc(-c4ccncc4)nn23)nc1 | 7.44%
COc1ccc(C(C)=O)cc1COc1ccc(Cl)c(C)c1 | 11.2%
O=C(O)c1cc(S(=O)(=O)Nc2ccccc2Cc2ccccc2)ccc1Cl | 30.4%
CCc1nnc(NS(=O)(=O)c2ccc(NC(=S)NC(=O)c3ccncc3)cc2)s1 | -12.7%
CC(OC(=O)CSc1ccc([N+](=O)[O-])cc1)C(=O)NCc1ccccc1 (stereo not drawn) | -1.86%
CCOC(=O)CSc1nc2c(sc(=S)n2-c2ccc(OCC)cc2)c(=O)[nH]1 | 15.5%
COCCNC(=S)N/N=C/c1ccc(OCc2ccc(C(=O)OC)cc2)c(OC)c1 | 21.5%
O=C(CNC(=O)C12CC3CC(CC(C3)C1)C2)N/N=C\c1ccco1 | 5.05%
COc1cccc(-c2cc(C(=O)NCCCN3CCOCC3)no2)c1 | -14%

SMILES | hERG current change (%, negative = inhibition) at 10uM
CC(=O)NC(C)C12CC3CC(CC(CC(=O)O)(C3)C1)C2 (stereo not drawn) | 13.2%
CCC(=O)Nc1nc2cc(OC)ccc2s1 | -1.05%
CCOC(=O)C(NC(=O)c1ccccc1)(N1CCOCC1)C(F)(F)F (stereo not drawn) | 4.58%
O=C(CCCN1C(=O)/C(=C/c2cccs2)SC1=S)Nc1ccccn1 | 23.9%
Fc1ccc(C2CCCCN2Cc2nc(CC3CC3)no2)cc1 (stereo not drawn) | -11.7%
O=C(CSc1nc(=O)[nH]c2c1CCCC2)Nc1ccc(F)cc1F | -4.34%
CCCCNC(=S)NNC(=O)c1cc(C)on1 | 12.4%
Cc1nc(SCc2ccccc2)c(C(F)(F)F)c(=O)[nH]1 | 4.6%
O=C(NCc1ccccc1)c1cccn(Cc2cccc(Cl)c2)c1=O | -17.6%
COC(=O)c1cc2c(s1)-c1cc(F)ccc1OC2 | 15.3%
CCc1ccc(NC(=O)CS(=O)CC(=O)N2CCN(c3ccccc3F)CC2)cc1 (stereo not drawn) | -2.72%
COc1cc(/C=N/NC(=O)COc2ccccc2C)ccc1OC(=O)c1cccs1 | -0.671%
CC(C)N1CCN(Cc2ccc(Oc3ncccn3)cc2)CC1CCO (stereo not drawn) | 10.9%
COc1ccc(-n2nnc3c(SCC(=O)NCc4ccco4)ncnc32)cc1 | -10.6%
Cc1cc(C)cc(OCC(=O)Nc2ccc(-n3cnnn3)cc2)c1 | 1.14%
CCSc1nnc(NC(=O)COc2ccccc2[N+](=O)[O-])s1 | -0.55%
CC(C)CC(OC(=O)c1cccs1)C(=O)NCC1CCCO1 (stereo not drawn) | 11.6%
CCCCNC(=S)NNC(=O)c1ccco1 | 1.53%
C[C@]12CCC3[C@@H](CCC4=CC(=O)CC[C@@]43CO)C1CCC2=O (stereo partly drawn) | -4.45%

From PMC4336329 (PLoS ONE, 2015)
